Measurements published in the supplement of paper PMC7826260.
Some of the results follow. Cleavage of a single-stranded DNA pool by Rep nickase domains was read by sequencing at 3 µM enzyme and 37 °C for 1 h; the strands have 90 letters, of which the middle is given. A value is the log2 ratio of uncut reads to the pool without enzyme; the lower, the more was cut; hits are not called. Reads are scaled to the total; where an enzyme cuts many sequences, the uncut ones exceed 0.

What was measured:
Assay in all cases: uncleaved DNA left, log2 of reads against the no-enzyme library (log2 ratio); higher = less cleavage (more negative = more Rep cleavage of the k-mer); sequences stand for … in CTCGTCCG…ACCGGAGA
[1] = tested on: T1, Rep nickase domain of Muscovy duck circovirus
T1 sequence (residues 1-111, tag not shown): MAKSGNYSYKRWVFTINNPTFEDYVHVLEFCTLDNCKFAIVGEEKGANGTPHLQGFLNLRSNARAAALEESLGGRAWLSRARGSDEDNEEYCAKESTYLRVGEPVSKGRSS
Protocol: (§1)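 A pool of 90-nt single-stranded DNAs with seven random bases just before the constant AC of the nick site (name = the seven bases) was cut by 3 µM recombinant His6-SUMO-tagged Rep nickase domain (300 nM DNA, 50 mM HEPES pH 8.0, 50 mM NaCl, 1 mM MnCl2, 1 h, 37 °C, three replicates). Uncut DNA was amplified and sequenced.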

[2] = tested on: T2, Rep nickase domain of banana bunchy top virus
T2 sequence (residues 1-94, tag not shown): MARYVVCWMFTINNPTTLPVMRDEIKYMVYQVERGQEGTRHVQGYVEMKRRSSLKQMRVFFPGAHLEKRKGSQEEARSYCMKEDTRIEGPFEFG
Protocol: as §1

[3] = tested on: T3, Rep nickase domain of cabbage leaf curl virus
T3 sequence (residues 1-116, tag not shown): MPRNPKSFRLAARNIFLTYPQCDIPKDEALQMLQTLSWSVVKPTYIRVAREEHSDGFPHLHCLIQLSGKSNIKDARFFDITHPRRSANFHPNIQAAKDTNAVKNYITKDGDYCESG
Protocol: as §1

[4] = tested on: T4, Rep nickase domain of chickpea chlorotic dwarf virus
T4 sequence (residues 1-124, tag not shown): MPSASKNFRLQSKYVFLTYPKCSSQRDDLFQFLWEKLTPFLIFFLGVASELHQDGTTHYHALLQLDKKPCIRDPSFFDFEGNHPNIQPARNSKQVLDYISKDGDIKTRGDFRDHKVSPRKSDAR
Protocol: as §1

[5] = tested on: T5, Rep nickase domain of faba bean necrotic yellows virus
T5 sequence (residues 1-98, tag not shown): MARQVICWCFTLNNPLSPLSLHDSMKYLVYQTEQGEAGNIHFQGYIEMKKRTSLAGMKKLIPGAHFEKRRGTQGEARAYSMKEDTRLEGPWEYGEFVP
Protocol: as §1

[6] = tested on: T6, Rep nickase domain of maize striate mosaic virus
T6 sequence (residues 1-117, tag not shown): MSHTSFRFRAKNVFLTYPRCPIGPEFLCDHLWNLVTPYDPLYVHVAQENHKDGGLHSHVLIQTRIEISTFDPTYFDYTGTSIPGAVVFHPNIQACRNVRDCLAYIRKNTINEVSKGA
Protocol: as §1

[7] = tested on: T7, Rep nickase domain of porcine circovirus 2
T7 sequence (residues 2-116, tag not shown): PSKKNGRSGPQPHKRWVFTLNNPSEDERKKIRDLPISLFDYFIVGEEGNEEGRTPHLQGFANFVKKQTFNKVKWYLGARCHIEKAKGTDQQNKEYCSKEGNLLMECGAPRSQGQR
Protocol: as §1

[8] = tested on: T8, Rep nickase domain of tomato yellow leaf curl virus
T8 sequence (residues 1-136, tag not shown): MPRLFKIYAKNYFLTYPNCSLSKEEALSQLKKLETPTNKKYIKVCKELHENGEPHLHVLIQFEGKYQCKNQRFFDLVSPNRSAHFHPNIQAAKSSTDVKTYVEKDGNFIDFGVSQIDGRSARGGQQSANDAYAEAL
Protocol: as §1

[9] = tested on: T9, Rep nickase domain of wheat dwarf virus
T9 sequence (residues 1-137, tag not shown): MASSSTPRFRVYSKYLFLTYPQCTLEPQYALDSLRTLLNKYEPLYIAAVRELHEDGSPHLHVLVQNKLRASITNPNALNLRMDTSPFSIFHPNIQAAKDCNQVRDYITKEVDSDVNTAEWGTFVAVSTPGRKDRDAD
Protocol: as §1

Sequence | uncleaved DNA left (log2) [1] | uncleaved DNA left (log2) [2] | uncleaved DNA left (log2) [3] | uncleaved DNA left (log2) [4] | uncleaved DNA left (log2) [5] | uncleaved DNA left (log2) [6] | uncleaved DNA left (log2) [7] | uncleaved DNA left (log2) [8] | uncleaved DNA left (log2) [9]
AAGGCAG | 0.0411 | 0.175 | -0.356 | -0.067 | 0.0249 | -0.578 | 0.368 | 0.0914 | 0.104
TGCCTGC | 0.0649 | 0.123 | 0.314 | 0.497 | 0.077 | 0.739 | 0.192 | 0.0637 | 0.0183
GGGAACT | 0.0154 | 0.0398 | 0.797 | 1.98 | -0.0496 | 2.23 | 0.181 | 0.0243 | 0.193
CCTCGTA | -0.114 | 0.0331 | -0.188 | -1.07 | 0.00946 | -0.937 | 0.0297 | -0.0786 | -0.0968
CACTCCG | 0.0651 | 0.094 | -0.905 | -0.0588 | -0.0573 | -0.725 | 0.1 | -0.116 | -0.0839
GGGAGTG | 0.00762 | -0.025 | 0.46 | 1.56 | -0.029 | 1.86 | 0.103 | -0.013 | 0.0394
GATGTTA | -0.035 | -0.0828 | 0.17 | 0.161 | 0.0608 | 1.15 | -0.0812 | -0.00561 | -0.116
CCATAGG | -0.0553 | -0.0872 | -0.0815 | 0.504 | 0.0624 | -0.358 | 0.102 | -0.146 | -0.0823
CGCTACT | -2.77 | -0.213 | -0.24 | -2.23 | 0.0623 | -0.0967 | -3.14 | -0.14 | -0.0848
TGTGCCT | -0.027 | -0.129 | -0.00972 | -0.645 | -0.00255 | -0.212 | -0.148 | 0.00333 | 0.0157
GGTCTAA | 0.0662 | 0.101 | 0.395 | 1.13 | -0.00626 | 1.77 | 0.116 | 0.0645 | 0.19
ACAATTC | 0.0879 | 0.0757 | -0.365 | -0.507 | -0.0668 | -1.13 | 0.108 | -0.0127 | -0.109
ACGTCTA | -0.0192 | -0.106 | -0.228 | -1.09 | -0.00624 | -0.535 | -0.285 | -0.171 | -0.0473
TAAGACA | 0.032 | 0.0104 | -0.872 | -2.41 | -0.0842 | 0.596 | 0.0369 | 0.078 | -0.144
CAGGATA | 0.115 | 0.0807 | 0.375 | 1.39 | 0.121 | 1.61 | 0.246 | -0.0612 | 0.0444
CCGAAAA | -0.053 | -0.0788 | 0.0212 | -0.116 | 0.0245 | -0.439 | 0.0379 | 0.00351 | 0.118
TCTCAAC | -0.0577 | 0.0448 | 0.164 | -1.46 | -0.116 | -0.412 | -0.0183 | -0.0137 | -0.0517
AATTTTA | -2.51 | -0.986 | -0.269 | -2.77 | -0.0528 | -0.656 | -2.76 | -0.111 | -0.171
TCCGGTA | 0.111 | -0.0622 | 0.285 | 0.372 | -0.0198 | 0.922 | 0.119 | -0.00117 | -0.019
GAAGAAG | 0.00653 | -0.0434 | -0.525 | -0.36 | 0.0705 | -0.904 | 0.117 | 0.00955 | -0.0825
TTGATCA | 0.16 | 0.2 | 0.445 | 0.225 | 0.105 | 0.639 | 0.0452 | 0.167 | 0.149
GCATCTT | -2.27 | 0.176 | 0.0184 | -1.46 | 0.142 | 0.0579 | -2.36 | 0.166 | 0.186
TCTCCAT | 0.102 | 0.0632 | 0.281 | -0.0545 | 0.0893 | 0.424 | -0.0978 | 0.0407 | 0.0148
TACTACT | -3.82 | -3.8 | -3.96 | -3.88 | -2.01 | -1.69 | -4.22 | -0.0407 | -2.26
TGTTAAT | -3.1 | -0.122 | 0.132 | -0.174 | -0.00864 | 0.598 | -3.05 | 0.207 | -0.0302
GGTCAGC | 0.0354 | 0.152 | 0.811 | 1.98 | -0.0722 | 2.2 | 0.132 | 0.0432 | 0.199
ACGGAAC | -0.0543 | -0.135 | -0.0674 | 0.149 | -0.125 | -0.126 | 0.13 | -0.182 | -0.0223
AATGTGA | 0.0194 | -0.0724 | -0.453 | -0.639 | 0.0108 | -0.938 | 0.0319 | 0.0318 | 0.0192
AGGTCTG | 0.0387 | 0.125 | 0.212 | 1.01 | 0.024 | 1.65 | 0.122 | 0.0038 | 0.0271
TCTTGAC | 0.0148 | -0.0154 | 0.087 | -2.09 | -0.00641 | -0.161 | 0.0278 | -0.0314 | -0.162
